# The inconclusive results got no clear call from the source; some entries with a clear call stand among them for comparison. Potencies of inconclusive entries are left out as doubtful fits. The source made the active and inactive calls. Calls come from the whole dose curve; as a rule, active = well fitted inhibition curve with a large enough effect; inconclusive = small, poorly fitted or top-dose-only effect; inactive = flat fitted curve, though single readings scatter.
# Target: Calcium and integrin-binding protein 1 (Homo sapiens) (UniProt Q99828)
# Assay: Primary qHTS for Identification of Calcium Integrin Binding Protein 1 (CIB1) Competitor (AID 1508620)
# Conditions: CIB1-GST / FITC-alphaIIb peptide fluorescence polarization; series mostly up to 114 µM
# Summary of the method: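 Fluorescence polarization competition: GST-tagged CIB1 (1 uM final) preincubated with compound 15 min at room temperature, then FITC-labelled alphaIIb peptide (100 nM final) added. After 15 min at room temperature, polarization read at Ex 480/Em 540.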
# Potency is the fitted concentration of half-maximal effect; tags give direction and shape of the fitted curve.
# Sequence of UniProt Q99828 (Q99828 whole entry, looked up): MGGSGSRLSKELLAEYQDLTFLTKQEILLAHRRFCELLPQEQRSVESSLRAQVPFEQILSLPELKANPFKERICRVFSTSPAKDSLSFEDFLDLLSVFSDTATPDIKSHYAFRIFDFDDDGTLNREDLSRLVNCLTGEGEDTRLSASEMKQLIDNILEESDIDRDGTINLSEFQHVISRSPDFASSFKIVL
row,SMILES,Potency
1,CN(C)c1cccc(-c2cnc(N3CCC(c4ncc[nH]4)CC3)s2)c1,"inconclusive [inhibitor, partial curve, poor fit]"
2,Cc1ccc2nsnc2c1S(=O)(=O)Nc1cccc2cccnc12,inactive
3,Cn1cncc1CNc1ncnc2ccc(-c3ccc4c(c3)OCO4)cc12,inactive
4,C=CCNc1oc(-c2ccc(F)cc2)nc1C#N,"inconclusive [inhibitor, partial curve, poor fit]"
5,O=C(CN1C(=O)N/C(=C\c2cccn2-c2cccc(C(=O)O)c2)C1=O)Nc1ccc(F)cc1,inactive
6,Cc1cc2c(s1)c1cnn(Cc3ccc(F)c(F)c3F)c(=O)c1n2C,inactive
7,OCc1ccc(-c2ccc3ncnc(NCc4ncc[nH]4)c3c2)o1,"inconclusive [inhibitor, partial curve, poor fit]"
8,CC(C)(C)CNc1ncnc2ccc(-c3ccc(CO)o3)cc12,"inconclusive [inhibitor, partial curve]"
9,O=C(Nc1nc(-c2ccccc2)cs1)c1ccncc1NS(=O)(=O)c1ccccc1Cl,"inconclusive [inhibitor, partial curve]"
10,c1ccc(C2Nc3cccc4cccc(c34)N2)cc1,"inconclusive [inhibitor, partial curve, poor fit]"
11,COc1ccc(S(=O)(=O)Nc2ccc(C)c(C)c2)cc1,inactive
12,Cc1cc(C)nc(NC(=S)N2CCN(c3ccc4nonc4c3)CC2)c1,"inconclusive [inhibitor, partial curve, poor fit]"

# — PubChem BioAssay (NCATS)
